Here are results for one molecule from patent publication US20220073613A1, “ACTIVATABLE MASKED ANTI-CTLA4 BINDING PROTEINS” (Xilio Development, Inc., priority 2018, published 2022).

In series [1] the test system is peripheral blood mononuclear cells (PBMCs). The format is cell-based, human. To be noted: non-activated (without exposure to protease); compared to isotype control.
In series [2] the test system is human conditioned media from human tumors (colon tumors, lung tumors).

B1: Antibody 2-10: masked Antibody 2-6: mask CPFPALELC, non-cleavable peptide GSGGSG; SEQ ID NO: 427 and 421; negative control (protein)
light: ACPFPALELCGGGSSGGSGGSGGSGSGGEIVLTQSPDFQSVTPKEKVTITCSANSALSYMYWYQQKPDQSPKLWVHGTSNLASGVPSRFSGSGSGTDFTLTINSLEAEDAATYYCHHWSNTQWTFGGGTKVEIKRTVAAPSVFIFPPSDEQLKSGTASVVCLLNNFYPREAKVQWKVDNALQSGNSQESVTEQDSKDSTYSLSSTLTLSKADYEKHKVYACEVTHQGLSSPVTKSFNRGEC
heavy: QVQLVQSGAEVKKPGSSVKVSCKASGYTFTNYFMNWVRQAPGQGLEWMGRVDPEQGRADYAEKFKKRVTITADKSTSTAYMELSSLRSEDTAVYYCARRAMDNYGFAYWGQGTLVTVSS[human IgG1 constant region with changes left out here]
Take B1: in series [1], the IL-2 production entry was “did not promote a significant increase in IL-2 production”. Further, in series [2], the “percentage (%) of cleavage / molecules cleaved, ELISA” value amounted to 4%.
